In the supplement of paper PMC11417369:
This is one part of the list.

Test system: PfSIP2 AP2 domain 1 (GST-tagged)
Assay: gcPBM binding intensity (ln(normalized median fluorescence intensity)); higher = stronger DNA binding
How it was run: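 After 1 h on an Agilent 4 × 180k array of primer-extended double-stranded 36-bp intergenic genomic probes and negative controls, bound GST-tagged P. falciparum DNA-binding domains were detected with Alexa488 anti-GST antibody and scanned at 488 nm. The domains had been expressed in E. coli, and binding took place in 1× PBS with 1% milk, 0.2 mg/ml BSA, 0.5% salmon testes DNA and 0.03% Triton X-100. Binding intensity is the highest Masliner-normalised natural-log median intensity across replicate spots of either probe orientation.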

| Sequence | gcPBM binding intensity (ln) |
| --- | --- |
| ATAATATAAATATGCACACAAATTATTACCCAAAAA [CACACA_site2524] | 8.85 |
| GTTATATTCCTACAGAGTACATAAAAATGCACATCA [XGTACX_site1948] | 7.54 |
| TATATAAAAAAACAAAGTACATGTTCTTAATCATTT [XGTACX_site8446] | 6.64 |
| AAATGAACAAGTGGCACACACACATCATAACTAATT [CACACA_site5730] | 6.77 |
| CACGCGAACATACATACACACACATATATATATATG [CACACA_site7951] | 7.21 |
| ATATATTTTTTCTTAACACACATATATAAAATAAAA [CACACA_site3500] | 7.23 |
| CAAAATATATATACCACACACACATACCTCTATTTG [CACACA_site1853] | 7.11 |
| TATATATATATATACACACACACACCGATATATATA [CACACA_site8813] | 9.17 |
| AGCCACTTAAAATACACACACACCAAAAAAAAAAAA [CACACA_site5497] | 7.35 |
| TATTTTATTTATTGAAGTACATTATACAAAAATAAA [XGTACX_site4824] | 7.21 |
| TATTCGAACAAAAATACATGCACATATGCATAATAA [TGCATGCA_site171] | 9.27 |
| TTTTCCAGTAAATATTTTTTTATAATATTTATATAT [CACACA_negctrl_site387] | 6.9 |
| AAATAAAATAAAATACGTACCTATTGTGCGTATTAA [XGTACX_site2912] | 6.74 |
| AATAATTTCCAAAAATGTACATATATTTACATATAT [XGTACX_site1790] | 7.09 |
| ATTTTAACTCCCCTTAATCTATTGTATATATATATA [CACACA_negctrl_site208] | 9 |
| TAATAAATGTTATTAGTGCATAATAGATAATATATT | 8.29 |
| TAAGAAATTGAGCGCACACATACATCTGTGGGATGG [CACACA_site1548] | 6.71 |
| ATTGTGGATATTCTTACACACAAATTTATTTATAAA [CACACA_site7267] | 6.66 |
| ATGTAAATATTTTGTATGCACTTTGATGCATCTTTT | 9.57 |
| TTTTTTTCTTCTTTTCTCTTAAAAATATTGAATATT [CACACA_negctrl_site1762] | 6.73 |
| AAAAAAAAAAAAAAAAAAAAAAAAAAAAAAAAAAAG [CACACA_negctrl_site292] | 9.16 |
| TCAAGAGTTATATAAACACACATACATACAGACATA [CACACA_site6998] | 6.93 |
| AGCAAAAAAAAAAAAAAAAAAAAAATAATAAAAAAT [TGCATGCA_negctrl_site202] | 6.87 |

| Sequence | gcPBM binding intensity (ln) |
| --- | --- |
| GTTTTCTAGTGGGGGTGTACATATTTATATTTAATA [XGTACX_site8378] | 9.65 |
| ATATATATATAATAAGTGCAAAAAAAAGAAAAAAAT | 8.48 |
| TTTTTTTTTTTTGAGGTGCATATATCAGATCAATAT | 10.6 |
| CATATATTAATATGTACACACATTAATAAAAAAAAA [CACACA_site7504] | 7.04 |
| AGTATTCATAAAAATACACACATGGAAAAATAAAAT [CACACA_site1454] | 7.16 |
| GGTATTACTTTTAGCTGTACTTATTTAAAAGTCAAA [XGTACX_site530] | 7.27 |
| ATTTTTTTTTTTTTATGTACATATTAAAAAAAATAT [XGTACX_site1829] | 7.01 |
| ATTTTTACTTTTTATGCATGCTATATTTTCAACCAT [TGCATGCA_site871] | 7.11 |
| ATTAAGGAAAAATTATGTACACAAAAACATATAACA [XGTACX_site2901] | 7.29 |
| TATACATGTTCAATTTGTACATATATAAATATATAT [XGTACX_site3554] | 7.09 |
| CTACACAAGCATTAAACACACAAAAGGGATACTTTG [CACACA_site1083] | 6.89 |
| ATTCAAAAAAATAAAATAAACATAAATAAACATAAA [TGCATGCA_negctrl_site390] | 6.86 |
| GGAAAAAGAAATTAATGTACATGTGGATGTATGAGG [XGTACX_site5468] | 7.25 |
| AAAATATTTAAGCATTGTACATATTTTTACAAATAC [XGTACX_site5349] | 6.85 |
| AAAATTCATCCAACAAGTACATAAATATAATATTAT [XGTACX_site4596] | 7.09 |
| AAGAACAGATAAAATCGTACGTGAAACATGAACTTG [XGTACX_site7793] | 6.86 |
| TCTGAAATTTTAGGGGTGCCTGGGACTAAAGAAACG [GTGCAC_site9785] | 8.09 |
| TAGAAACCATAAAAATGTACTTAAAAATAGACAATT [XGTACX_site5007] | 6.82 |
| AGACTTTTTATGAGCACACACATATATTATGGAGTA [CACACA_site1040] | 7.09 |
| TTTAATTCCCATATATGTACACAATTTCTTCTATAA [XGTACX_site1465] | 7.08 |
| ATAAATTCATTATATTGTACAAACAAATGAAAAAAA [XGTACX_site8304] | 6.92 |
| ATACATAAATATTATTGTACATATATAATATTAATA [XGTACX_site3514] | 7 |
| TATGTGTATTTATTTGCATGTTGGTTGTATTTTTTC [TGCATGCA_site479] | 6.93 |

| Sequence | gcPBM binding intensity (ln) |
| --- | --- |
| TCTTCATATGTTTACTGTACGAGAAAAAAAAAAAAA [XGTACX_site6418] | 7.36 |
| TAATAAAATAAAAATTGTACATTTTATATTTATCAA [XGTACX_site5134] | 6.8 |
| AATGAAAAAAAAAAAAAAAAGAAGAAGCAAATGGTA [TGCATGCA_negctrl_site335] | 6.46 |
| ATAAATAATTATATATGTACACATTATGAATGGATA [XGTACX_site8336] | 7.34 |
| AGATTATTTGGACATGCATGTAAAAAAATACGTATA [TGCATGCA_site972] | 6.92 |
| ATTTCCCACTTGTGTGTGCGCATGTGTATATATTTA [GTGCAC_site9949] | 7.73 |
| AAAAGTGATAATAAGAGTACATAAAAAATTTATTAT [XGTACX_site8037] | 6.89 |
| TTATTTGTTTGTTGGATGCTTTTTTTTTTTTTTTTT [CACACA_negctrl_site1697] | 7.74 |
| TACATATATATAATATGTACTTATAATATGTATTTA [XGTACX_site2162] | 6.83 |
| TATTCTATACTATATTGTACTATAATATAATATACT [XGTACX_site797] | 7.08 |
| AAATAATTTATAAATAAATACATTGTTACTTTTTCT [GTGCAC_negctrl_site639] | 6.74 |
| ACTAATTACTATAAAACACACATATATTTATTTATA [CACACA_site7263] | 7.17 |
| CACATGTATTTATAGGTGCGTAAAAACACTTTATAT [GTGCAC_site9501] | 8.77 |
| TTATAGAAACATTGGTGTACGATATTTACTTCTTTC [XGTACX_site7314] | 6.81 |
| GGAATAGTCGGGTGCATACACACCTTAAATATAATA [CACACA_site1081] | 11.4 |
| AAAGAAAATTCAATAGTGCATAAAAATATATATGTT [GTGCAC_site9680] | 8.3 |
| TAAAAAAATTCATGCACACGAAATAAAAAGCACCTT [CACACA_site4667] | 8.97 |
| AAACATAAATTTTATTGTACATTATATAGAATTTTC [XGTACX_site576] | 6.81 |
| AATACATACATACATACACACATATATATATATTAT [CACACA_site3575] | 7.29 |
| TTTTCATTTTTTCGTTGTACATAAATAATATATATT [XGTACX_site856] | 7.59 |
| TTTTTTAAAAGATAATATTTTATTAATGTATTCTCA [GTGCAC_negctrl_site598] | 6.64 |
| TTTTACTATACTTATGCACACAAGATATATACATAT [CACACA_site2968] | 7.36 |
| TATTAAAAGGTGAGTACACACATATATGTGTATATA [CACACA_site7070] | 6.93 |

| Sequence | gcPBM binding intensity (ln) |
| --- | --- |
| ATATATATATATATATGTACACAGGACAATAATCCT [XGTACX_site6383] | 9.34 |
| ATCATGAAATATATTTGTACACATAATAATATAATA [XGTACX_site8798] | 7.18 |
| ATTTGGCAGAAACACACACACACACCCACCCACATA [CACACA_site589] | 7.01 |
| TTTTTTTTTATAAATACACACGTACGGGTGCATAAC [CACACA_site8444] | 11.3 |
| TATATATATATAACAACACACACAGATCATAAAACT [CACACA_site8670] | 9.26 |
| TATTTTTTTTCGTAATGTACATAAAAAATGCAAAAA [XGTACX_site8491] | 7.6 |
| ATTATATAATTTAATCGTACACAAATATTTGTTAGT [XGTACX_site5913] | 7.18 |
| CCATAATTATATGCCAGTACATATTTGTAACAAAAA [XGTACX_site851] | 7.19 |
| TTTATTTTTCATTGGGGTACACAAGTTTATTTTATT [XGTACX_site4263] | 7.57 |
| TAAGTAATAGTTTGTGCACACTCAAGTATATCATAT [CACACA_site4035] | 9.42 |
| TATTATTCCATGTGAAGTACAGAAATATAAATAAAT [XGTACX_site5106] | 7.25 |
| CTTTTAAAAAAATTCATGCACACGAAATAAAAAGCA [CACACA_site929] | 7.69 |
| CAAAATATTTTTATAACACACATATATAGAATGTGC [CACACA_site1145] | 6.83 |
| TATCATCTTAATATCGTGCACATTTATAGAACGAAA [GTGCAC_site9992] | 10 |
| TTTTACTATACTTATGCACACAAGATAAATACATAT [CACACA_site5619] | 7.7 |
| ATACCTCAAATTGATACACACAAAAAAAGTAAATTA [CACACA_site3134] | 7.18 |
| CTATTTTAATATTTTACACACCATGTAAAATATATA [CACACA_site5732] | 6.99 |
| TTTTTATTCGTTAAATGTACAAAAAAAATGTTATAT [XGTACX_site2804] | 7.24 |
| ATACACTAGAAAATTTTATAGTATTATTAATGTTAA [GTGCAC_negctrl_site101] | 6.85 |
| GCTTAGTTATATAACTGTACTATTTTTATTTATATG [XGTACX_site884] | 7.14 |
